# Data published in PubChem BioAssay AID488969 (Vanderbilt High Throughput Screening Facility, 2010).
# Over roughly 110,000 compounds, “z-score” has its median near -0.1; the highest 2% begin near 2. The list shows a part of the results. Calls of active or inactive are those of the source.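 Rule for the calls: active = z-score in the third read window above 3 or below -3; inactive = the rest.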
# Target: Metabotropic glutamate receptor 8 (Rattus norvegicus) (UniProt P70579)
# Test: mGluR8 Gi/Go-coupled signaling modulation – cell-based, rat, thallium flux, HTS, primary screen (AID 488969)
# Details: HEK293 rat mGluR8, GIRK (G protein-gated inwardly rectifying potassium channel) thallium flux, FluoZin2; at 10 µM; stronger effect = higher value; submaximal glutamate (EC20) added with thallium
# Sequence of UniProt P70579 (P70579 whole entry, looked up): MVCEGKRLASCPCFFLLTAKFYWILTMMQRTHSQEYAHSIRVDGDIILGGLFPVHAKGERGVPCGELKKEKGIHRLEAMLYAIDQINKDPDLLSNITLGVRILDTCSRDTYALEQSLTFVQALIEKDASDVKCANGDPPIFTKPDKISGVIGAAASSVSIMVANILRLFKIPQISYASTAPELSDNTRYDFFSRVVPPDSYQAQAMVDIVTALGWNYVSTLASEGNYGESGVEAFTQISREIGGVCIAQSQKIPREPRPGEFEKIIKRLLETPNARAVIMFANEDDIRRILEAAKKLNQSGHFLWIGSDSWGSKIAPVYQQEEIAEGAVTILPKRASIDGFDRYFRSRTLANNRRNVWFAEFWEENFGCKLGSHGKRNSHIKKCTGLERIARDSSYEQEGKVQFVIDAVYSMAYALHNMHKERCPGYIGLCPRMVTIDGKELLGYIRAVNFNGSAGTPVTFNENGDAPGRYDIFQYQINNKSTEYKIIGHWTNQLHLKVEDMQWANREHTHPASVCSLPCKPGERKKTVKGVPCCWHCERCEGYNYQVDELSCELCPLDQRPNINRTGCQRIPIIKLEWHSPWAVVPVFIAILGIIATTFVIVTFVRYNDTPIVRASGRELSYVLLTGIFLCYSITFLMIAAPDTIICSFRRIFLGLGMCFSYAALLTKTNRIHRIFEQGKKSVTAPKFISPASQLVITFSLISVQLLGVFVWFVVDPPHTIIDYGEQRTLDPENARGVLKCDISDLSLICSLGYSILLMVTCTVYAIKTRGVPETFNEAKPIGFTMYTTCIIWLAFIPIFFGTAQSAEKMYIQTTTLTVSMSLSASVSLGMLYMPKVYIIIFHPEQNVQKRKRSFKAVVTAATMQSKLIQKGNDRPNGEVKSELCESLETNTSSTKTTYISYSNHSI
row,Compound,z-score
1,Fc1ccccc1CSc1ncnc2c1oc1ccccc12,0.342
2,CCCOc1ccc(N2C(=O)CC(N3CCC(c4nncn4CC)CC3)C2=O)cc1 (stereo not given),0.0427
3,CCOc1ccc(NCc2nnc(SCc3ccccc3Cl)n2-c2ccccc2)cc1,-0.103
4,NC(=O)CSC1=Nc2ccccc2C2=NC(CC(=O)NCc3cccs3)C(=O)N12 (stereo not given),0.844
5,CC(=O)Nc1nc(C)nc(-c2ccccc2)c1C(C)=O,0.465
6,O=C(CCc1nc2ccccc2c(=O)[nH]1)OCC(=O)c1cccc(Cl)c1,-0.231
7,CCCC1O[C@@H]2CC3C4CCC5=CC(=O)C=C[C@]5(C)C4C(OC(C)=O)C[C@]3(C)[C@]2(C(=O)COC(C)=O)O1 (stereo not given in full),-0.809
8,Cc1ccc(S(=O)(=O)N2CN(Cc3ccco3)c3nc4ccccc4nc32)cc1C,-0.26
9,COc1cc(C2C(C#N)=C(N)OC3=C2C(=O)CCC3)c([N+](=O)[O-])cc1OC (stereo not given),-0.496
10,C=CCOc1ccc(NC(=O)C(=O)NCCCn2ccnc2)cc1,-0.0948
11,COC(=O)c1sccc1NC(=O)C1C2C=CC(O2)C1C(=O)O (stereo not given),-0.0649
12,COC(=O)c1c(NC(=O)c2ccccc2N(C)S(=O)(=O)c2ccccc2)sc2c1CCCC2,-0.215
13,CCC(=O)NC(=S)N1CCN(c2ccc([N+](=O)[O-])cc2Cl)CC1,0.187
14,CC(=O)N1CCC2(CC1)C(C#N)=C(N)OC1=C2C(=O)CC(C)(C)C1,0.05
15,O=C(Nc1ccc(S(=O)(=O)N2CCCCC2)cc1)C1CCCN(C(=O)c2ccc(Cl)cc2)C1 (stereo not given),-0.106
16,O=C(c1ccc([N+](=O)[O-])s1)N1CCN(c2cccc(Cl)c2)CC1,-0.197
17,COc1ccccc1NC(=O)c1cc(C(=O)Nc2ccccc2OC)cc(N2C(=O)CCC2=O)c1,active: 4.66
18,O=C(CN(Cc1ccccc1)C(=O)CSc1nnc(COc2ccccc2)o1)NC1CCCC1,0.0593
19,Cc1ccc2nc(-c3cccc(NC(=O)c4ccco4)c3)[nH]c2c1,-0.409
20,O=C(OCc1nc2ccccc2[nH]1)C12CC3CC(CC(C3)C1)C2,0.101
21,Clc1ccc(CSc2nnc(-c3cccnc3)n2Cc2ccco2)c(Cl)c1,-0.912
22,CC(NC(=O)Nc1ccc(F)cc1F)c1ccncc1 (stereo not given),0.0735

row,Compound,z-score
1,CCCCN(CC)C(=O)C1CCC(=O)N(c2ccc(OC)cc2)C1c1ccc(OC)c(OC)c1 (stereo not given),0.0756
2,CCOc1ncccc1C(=O)NCc1ccccc1,-0.616
3,C=CCOc1ccccc1CNCCCN1CCOCC1,-0.0337
4,O=C(Nc1cccc(C(F)(F)F)c1)NC1CCN(S(=O)(=O)c2ccc(F)cc2)CC1,-0.153
5,N#Cc1ccc(Oc2nc(Nc3ccc(F)cc3)nc(N3CCCC3)n2)cc1,0.106
6,O=C(CCC(=O)N1CCCC1)Nc1nnc(C2CCCCC2)s1,0.682
7,Cc1ccccc1-c1noc(CCC(=O)NCC2CCCO2)n1 (stereo not given),-0.035
8,COc1ccc(OCCOC(=O)c2ccc(-n3cnnn3)cc2)cc1,-0.298
9,O=C(Nc1ccon1)c1cc2ccccc2oc1=O,-0.329
10,COc1ccc(OC)c(NC(=O)CSc2nnc(CNC(=O)COc3ccc(Cl)cc3)o2)c1,-0.149
11,CCn1c(O)c(N=NC2=NC(=O)CS2)c2cc(C)ccc21,2.24
12,COC(=O)c1cc2nc(-c3ccccc3)cc(C(F)(F)F)n2n1,-0.895
13,COc1ccc2sc3ccccc3c(=O)c2c1,-0.213
14,CN(C(=O)c1ccc(C#N)cc1)c1nnc(-c2ccccn2)s1,-0.0482
15,COCCCNC(=O)c1ccc2c(c1)OCO2,-0.233
16,CCOC(=O)C1=C(C)n2c(s/c(=C3\C(=O)Nc4ccccc43)c2=O)=NC1c1ccc(OC)cc1 (stereo not given),-0.234
17,O=S(=O)(Nc1ccc(N2CCOCC2)cc1)c1ccccc1,0.324
18,COC(=O)c1cc(Cl)c(NC(=O)c2cc3ccccc3o2)cc1OC,-0.151
19,Cc1cccc(NC(=S)N2CCOCC2)c1C,-0.324
20,COc1cc(OC)cc(C(=O)N/N=C/c2ccc(OC)c(COc3ccc(F)cc3)c2)c1,0.0589
21,NC(=O)C(c1ncc(C(F)(F)F)cc1Cl)c1c(Cl)cccc1Cl (stereo not given),-0.197
22,CC(=O)Nc1sc2c(c1C(c1ccccc1)N1CCOCC1)CCCC2 (stereo not given),-0.174

row,Compound,z-score
1,CCOc1ccccc1NS(=O)(=O)c1cccc2nsnc12,0.831
2,CC1CCCN(CCOCCSc2ccccc2)C1 (stereo not given),0.303
3,O=C1C(C=NCCCN2CCCC2=O)=C(O)c2ccccc21,0.249
4,Cc1ccccc1C1NC(=O)Cc2ccccc21 (stereo not given),-0.099
5,O=[N+]([O-])c1ccc(NNC(=S)Nc2ccc(F)cc2)cc1,0.253
6,CC(=O)N1CCC(N(CCCOC(C)C)C(=O)Nc2ccc(C)c(C)c2)CC1,-0.0612
7,CCOc1cc(-c2nc(-c3ccccc3OC)no2)cc(OCC)c1OCC,0.118
8,Clc1ccc2nc3ccccn3c2c1,0.482
9,CC(C)OCC(O)CS(=O)Cc1ccccc1 (stereo not given),0.168
10,CCOC(=O)C1CCCN(C(=O)c2ccccc2Oc2ccccc2)C1 (stereo not given),-1.27
11,CC(=O)c1ccc(OCC(O)CN2CCC(C)CC2)cc1 (stereo not given),-0.444
12,Cc1ccc(Nc2nc3nonc3[nH]c2=O)cc1,-0.304
13,COc1ccc(-c2cnn3c(N)c(S(=O)(=O)c4ccccc4)cnc23)cc1,-0.0142
14,CC(C)(O)C#Cc1ccc(C(=O)N2CCN(C(=O)c3ccco3)CC2)cc1,0.294
15,COc1ccc(C2C(=O)N(C3CCCCC3)CC(=O)N2CC2COc3ccccc3O2)cc1 (stereo not given),-0.174
16,CCS(=O)(=O)N1CCC(C(=O)c2ccc(Cl)cc2)CC1,0.431
17,Cc1cc(C)c(S(C)(=O)=O)c(S(=O)c2ccc(Cl)cc2)n1 (stereo not given),-0.807
18,O=C1CC(Sc2ncccn2)C(=O)N1c1ccccc1C(F)(F)F (stereo not given),0.784
19,CCCCC(=O)Nc1ccc(Br)cc1C(=O)O,-0.24
20,CCOC(=O)Oc1ccc2c(=O)c(Oc3cc(C)cc(C)c3)coc2c1,-0.109
21,Cc1ccc(C)c(NC(=O)C2CC(O)CN2C(=O)OC(C)(C)C)c1 (stereo not given),-0.0711
22,O=S1(=O)N=C2CCCN2C(c2ccc(F)cc2)N1 (stereo not given),0.0641

row,Compound,z-score
1,Cc1ccc(C(c2nnnn2C2CCCCC2)N(C)C2CCCCC2)cc1 (stereo not given),-0.198
2,Clc1ccccc1OCc1nnc(-c2ccccc2Br)o1,-0.451
3,COc1ccc(C(CC(=O)Nc2ccc(Cl)cc2F)NC(=O)C(F)(F)F)cc1 (stereo not given),-0.164
4,COc1ccc(-c2nc(C#N)c(N3CCN(c4ccccc4)CC3)o2)cc1,0.645
5,O=C(c1cnn(-c2ccccc2)c1)c1ccccc1O,-0.163
6,COc1ccc(-c2nnc(SC(C)C(=O)Nc3ccc4c(c3)OCCO4)o2)cc1 (stereo not given),1.65
7,O=C(CNC(=O)c1ccc(N2C(=O)c3ccccc3C2=O)cc1)OCC(=O)c1cccc2ccccc12,-0.565
8,COc1ccc(CNC(=O)C2CCN(S(=O)(=O)c3cc(OC)ccc3OC)CC2)cc1,-0.313
9,CCn1c(COc2cccc3ccccc23)nnc1SCC(N)=O,0.457
10,CCOCCCNC(=O)C(c1ccc(C)cc1)N1CCOCC1 (stereo not given),-0.197
11,CCCCn1c(SCC(=O)Nc2nccs2)nc2ccccc2c1=O,0.559
12,Cn1c(CNc2ccccn2)c(C#N)c2ccccc21,-0.123
13,Oc1ccccc1-c1cc(-c2ccccc2Cl)[nH]n1,-0.137
14,CCC(CC)C(=O)Nc1cccc(C(=O)NCc2ccco2)c1,-0.972
15,Cc1cccc(NC(=O)c2nc(-c3ccccc3)n(-c3ccccc3)n2)c1C,0.835
16,CCOC(=O)c1ccc(CNCc2ccc(Br)cc2)cc1,active: -3.34
17,Cc1nn(CC(=O)N(C)Cc2ccc(F)cc2)c(C)c1[N+](=O)[O-],-0.458
18,Cc1nc2nc(SCC(=O)NCc3ccco3)nn2c(C)c1Cc1c(F)cccc1Cl,-0.482
19,N#Cc1cc(-c2ccccc2)nnc1Oc1ccccc1Cl,0.0526
20,COC(=O)c1cc(C(=O)c2ccc(Cl)cc2Cl)cn1C,-0.292
21,COC(=O)C1=C(CSCc2ccco2)NC(=O)NC1c1cc(C)ccc1C (stereo not given),-0.361
22,CN(C)C(=O)CSc1nc2ccccc2n1Cc1ccccc1,-0.129

row,Compound,z-score
1,CC(C)(C)NCc1cc(Cl)ccc1OCc1cccs1,0.678
2,COc1ccc(OC)c(S(=O)(=O)Nc2ccccc2C)c1,-0.584
3,COc1ccc(Cl)cc1N1CCN(CCNC(=O)Nc2ccccc2C)CC1,1.4
4,COc1ccc(-c2nc(C#N)c(NCCCN3CCOCC3)o2)cc1,0.105
5,C=C(C)c1cccc(C(C)(C)NC(=O)N2CCCC(C)C2)c1 (stereo not given),-0.261
6,Cc1ccc(NC(=O)Nc2ccccc2C(=O)NCc2ccccc2)cc1,-0.199
7,COc1ccc(N(C)C(=O)CCC(=O)Nc2ccc3nc(N4CCOCC4)cc(C)c3c2)c(OC)c1,-0.423
8,COc1ccc(CCN(Cc2nc(-c3ccccc3)no2)Cc2nc(-c3ccccc3)no2)cc1OC,0.106
9,O=C(c1ccc(N2CCNCC2)cc1)c1cccnc1,-0.0635
10,CN(C)CCNC(=O)c1ccc(Cl)s1,-0.326
11,O=C(Cc1ccc2c(c1)OCCO2)N1CCN(S(=O)(=O)c2cccc(C(F)(F)F)c2)CC1,-0.325
12,CC1(C)C(=O)C2(CCCCC2)C(=O)OC1c1ccc(O)cc1 (stereo not given),0.812
13,N#Cc1cc(C(=O)c2cc(Br)ccc2O)cn(C2CCCCC2)c1=O,0.172
14,COc1cc(-c2nn3c(-c4cccc(C)c4)nnc3s2)cc(OC)c1OC,-1.05
15,C=CCSc1nnc(-c2ccccc2N=Cc2c(C)[nH]n(-c3ccccc3)c2=O)c(=O)[nH]1,-1.38
16,Cc1cc(N2CCCC2)ccc1/C=N/n1cnnc1,0.0308
17,CN(C1CCCCC1)S(=O)(=O)c1ccc(NC(=O)c2ccco2)cc1,-1.31
18,c1ccc(-c2ccccc2-c2nc(-c3cccnc3)no2)cc1,-0.645
19,O=C(NCCCCc1ccccc1)C1CC(c2ccc([N+](=O)[O-])cc2)=NO1 (stereo not given),-0.194
20,C=CCn1c(O)c(N=NC(=O)c2ccccc2NS(=O)(=O)c2cccs2)c2ccccc21,0.211
21,Cc1cccc(N2C(=O)CC(N(C(=O)c3ccco3)c3cccc(C)c3)C2=O)c1 (stereo not given),-1.08
22,CCN(CC)S(=O)(=O)c1ccc2[nH]cc(C(=O)NCCC3=CCCCC3)c(=O)c2c1,-0.495
